What was measured:
CTG-0167 (NSCLC) = assay: Patient-derived xenograft model CTG-0167; format: in vivo; details: CTG-0167 (NSCLC) PDX, NSG female mice; 3 mkd dosed IP, Q2Dx5
Protocol: (§1) The effect of a TRAIL receptor agonist protein made up of two polypeptides having the amino acid sequence set forth in SEQ ID NO:19 on tumor growth was also evaluated in patient-derived xenograft models CTG-0069 (colorectal), CTG-0167 (NSCLC), CTG-0293 (pancreatic), CTG-0714 (sarcoma), CTG-0136 (esophageal), CTG-485 (gastric), and CTG-0785 (Ewing's sarcoma) implanted in NSG female mice (Champions Oncology; Hackensack, N.J.). Briefly, tumor fragments were propagated subcutaneously into the right hind flank of female NSG mice on study day 0. Administration of a TRAIL receptor agonist protein made up of two polypeptides having the amino acid sequence set forth in SEQ ID NO: 19 (3 mkd dosed IP, Q2Dx5) was initiated at the time of size match. Tumor volume was measured for the duration of the experiment until the mean tumor volume in each group reached an endpoint of >2000 mm^3 or 60 days.

[1] = test system: subcutaneous Colo205 (colorectal) xenograft tumors; assay: Colo205 colorectal carcinoma xenograft model; format: in vivo; details: SCID female mice, 0.3, 1, or 3 mkd dosed IV, QDx5 or IP, Q2Dx5 as indicated
Protocol: (§2) The effect of a TRAIL receptor agonist protein made up of two polypeptides having the amino acid sequence set forth in SEQ ID NO:19 on tumor growth was evaluated in subcutaneous Colo205 (colorectal), SKM-1 (acute myeloid leukemia), and H460LM (non-small cell lung) xenograft tumors implanted in SCID female mice (Charles Rivers Laboratories; Wilmington, Mass.). Briefly, human cancer cells were inoculated subcutaneously into the right hind flank of female SCID mice on study day 0. Administration of TRAIL receptor agonist protein of SEQ ID NO:19 (0.3, 1, or 3 mkd dosed IV, QDx5 or IP, Q2Dx5 as indicated) was initiated at the time of size match. Tumor volume was measured for the duration of the experiment until the mean tumor volume in each group reached an endpoint of >2000 mm^3 for Colo205 and SKM-1 or >2500 mm^3 for H460LM.

PL-21 = assay: Tumor cell viability, CellTiter-Glo; format: cell-based, human; details: PL-21 (AML), 24 hours
Protocol: (§3) Tumor cells were seeded at 10,000 cells/well in 96-well plates in the recommended media containing 10% FBS and treated with a TRAIL receptor agonist protein made up of two polypeptides having the amino acid sequence set forth in SEQ ID NO: 19 for 24 hours at 37° C. in a humidified, 5% CO2 atmosphere. Cell viability was subsequently assessed using CellTiter-Glo® reagent as described by the manufacturer's instructions (Promega; Madison, Wis.). IC50 values were determined by non-linear regression analysis of the concentration response data normalized to non-treated control cells.

MCF7 = assay: Tumor cell viability, CellTiter-Glo; format: cell-based, human; details: MCF7 (BrCa), 24 hours
Protocol: as §3

NCI-H1373 = assay: Tumor cell viability, CellTiter-Glo; format: cell-based, human; details: NCI-H1373 (NSCLC), 24 hours
Protocol: as §3

NCI-H2444 = assay: Tumor cell viability, CellTiter-Glo; format: cell-based, human; details: NCI-H2444 (NSCLC), 24 hours
Protocol: as §3

OCI-AML2 = assay: Tumor cell viability, CellTiter-Glo; format: cell-based, human; details: OCI-AML2 (AML), 24 hours
Protocol: as §3

NCI-H1975 = assay: Tumor cell viability, CellTiter-Glo; format: cell-based, human; details: NCI-H1975 (NSCLC), 24 hours
Protocol: as §3

Kasumi-1 = assay: Tumor cell viability, CellTiter-Glo; format: cell-based, human; details: Kasumi-1 (AML), 24 hours
Protocol: as §3

NCI-H2122 = assay: Tumor cell viability, CellTiter-Glo; format: cell-based, human; details: NCI-H2122 (NSCLC), 24 hours
Protocol: as §3

HL-60 = assay: Tumor cell viability, CellTiter-Glo; format: cell-based, human; details: HL-60 (AML), 24 hours
Protocol: as §3

NUDHL-1 = assay: Tumor cell viability, CellTiter-Glo; format: cell-based, human; details: NUDHL-1 (NHL), 24 hours
Protocol: as §3

Jurkat = assay: Tumor cell viability, CellTiter-Glo; format: cell-based, human; details: 24 hours
Protocol: as §3

Calu-6 = assay: Tumor cell viability, CellTiter-Glo; format: cell-based, human; details: Calu-6 (NSCLC), 24 hours
Protocol: as §3

MIA PaCa-2 = assay: Tumor cell viability, CellTiter-Glo; format: cell-based, human; details: MIA PaCa-2 (Pancreatic), 24 hours
Protocol: as §3

HCC38 = assay: Tumor cell viability, CellTiter-Glo; format: cell-based, human; details: HCC38 (BrCa), 24 hours
Protocol: as §3

NCI-H1650-GFP = assay: Tumor cell viability, CellTiter-Glo; format: cell-based, human; details: NCI-H1650-GFP (NSCLC), 24 hours
Protocol: as §3

CTG-0293 (pancreatic) = assay: Patient-derived xenograft model CTG-0293; format: in vivo; details: CTG-0293 (pancreatic) PDX, NSG female mice; 3 mkd dosed IP, Q2Dx5
Protocol: as §1

CTG-0069 (colorectal) = assay: Patient-derived xenograft model CTG-0069; format: in vivo; details: CTG-0069 (colorectal) PDX, NSG female mice; 3 mkd dosed IP, Q2Dx5
Protocol: as §1

[2] = test system: subcutaneous H460LM (non-small cell lung) xenograft tumors; assay: H460LM non-small cell lung xenograft model; format: in vivo; details: SCID female mice, 0.3, 1, or 3 mkd dosed IV, QDx5 or IP, Q2Dx5 as indicated
Protocol: as §2

CTG-485 (gastric) = assay: Patient-derived xenograft model CTG-485; format: in vivo; details: CTG-485 (gastric) PDX, NSG female mice; 3 mkd dosed IP, Q2Dx5
Protocol: as §1

[3] = test system: CTG-0785 (Ewing's sarcoma); assay: Patient-derived xenograft model CTG-0785; format: in vivo; details: CTG-0785 (Ewing's sarcoma) PDX, NSG female mice; 3 mkd dosed IP, Q2Dx5
Protocol: as §1

[4] = test system: subcutaneous SKM-1 (acute myeloid leukemia) xenograft tumors; assay: SKM-1 acute myeloid leukemia xenograft model; format: in vivo; details: SKM-1 xenograft, SCID female mice; 0.3, 1, or 3 mkd dosed IV, QDx5 or IP, Q2Dx5 as indicated
Protocol: as §2

CTG-0714 (sarcoma) = assay: Patient-derived xenograft model CTG-0714; format: in vivo; details: CTG-0714 (sarcoma) PDX, NSG female mice; 3 mkd dosed IP, Q2Dx5
Protocol: as §1

B1: SEQ ID NO: 19: made up of two polypeptides of SEQ ID NO: 19; three hinge cysteines, N297S aglycosylated CH2, glycosites at positions 168 and 337 (protein)
chain: QRVAAHITGTRGRSNTLSSPNSKNEKALGRKINSWESSRSGHSFLSNLHLRNGELVIHEKGFYYIYSQTYFRFQEEIKENTKNDKQMVQYIYKYTSYPDPILLMKSARNSCWSKDAEYGLYSIYQGGIFELKENDRIFVSVTNEHLIDMDHEASFFGAFLVGGSGSGNGSRVAAHITGTRGRSNTLSSPNSKNEKALGRKINSWESSRSGHSFLSNLHLRNGELVIHEKGFYYIYSQTYFRFQEEIKENTKNDKQMVQYIYKYTSYPDPILLMKSARNSCWSKDAEYGLYSIYQGGIFELKENDRIFVSVTNEHLIDMDHEASFFGAFLVGGSGSGNGSRVAAHITGTRGRSNTLSSPNSKNEKALGRKINSWESSRSGHSFLSNLHLRNGELVIHEKGFYYIYSQTYFRFQEEIKENTKNDKQMVQYIYKYTSYPDPILLMKSARNSCWSKDAEYGLYSIYQGGIFELKENDRIFVSVTNEHLIDMDHEASFFGAFLVGGPGSSSSSSSG[human IgG1 Fc with N297S (EU numbers) not written out]
modifications: homodimer
effect on tumor growth (CTG-0167 (NSCLC)): significant tumor growth inhibition | effect on tumor growth [1]: significant tumor growth inhibition | IC50 (PL-21): 0.01067 µg/mL | IC50 (MCF7): >3 µg/mL | IC50 (NCI-H1373): 0.12515 µg/mL | IC50 (NCI-H2444): 0.02775 µg/mL | IC50 (OCI-AML2): 0.12432 µg/mL | IC50 (NCI-H1975): 0.7415 µg/mL | IC50 (Kasumi-1): 1 µg/mL | IC50 (NCI-H2122): 0.48055 µg/mL | IC50 (HL-60): 0.07662 µg/mL | IC50 (NUDHL-1): 0.0065 µg/mL | IC50 (Jurkat; Jurkat (ALL)): 0.00308 µg/mL | cell death / cell viability (FIG. 19) (Jurkat; Jurkat cells, increasing concentrations): induces cell death | IC50 (Calu-6): 4.757 µg/mL | IC50 (MIA PaCa-2): 0.158 µg/mL | IC50 (HCC38): 0.003 µg/mL | IC50 (NCI-H1650-GFP): >0.003 µg/mL | effect on tumor growth (CTG-0293 (pancreatic)): significant tumor growth inhibition | effect on tumor growth (CTG-0069 (colorectal)): significant tumor growth inhibition | effect on tumor growth [2]: significant tumor growth inhibition | effect on tumor growth (CTG-485 (gastric)): significant tumor growth inhibition | effect on tumor growth [3]: significant tumor growth inhibition | effect on tumor growth [4]: significant tumor growth inhibition | effect on tumor growth (CTG-0714 (sarcoma)): significant tumor growth inhibition

Reference: US9908927B2, “Single-chain trail-receptor agonist proteins” (AbbVie Inc., priority 2014, dated 2018)
